# Test results: the supplement of paper PMC4604168 (melanoma cell lines)
# The list shows a part of the results. Most values come without repeats; read them as rough.
# Columns and labels:
# Test in all cases: cell count relative to DMSO control; melanoma cells; higher = more viable cells
# Settings in all cases: library dose: standard library concentration; 72 h
# [1] = tested on: G361
# [2] = tested on: IPC-298
# [3] = tested on: IST-MEL1
# [4] = tested on: LB2518-MEL
# [5] = tested on: LOXIMVI
# [6] = tested on: MEL-HO
# [7] = tested on: MZ2-MEL
# [8] = tested on: MeWo
# [9] = tested on: RPMI7951
# [10] = tested on: RVH-421
# [11] = tested on: SkMel28
# [12] = tested on: SkMel2
# [13] = tested on: SkMel30
# [14] = tested on: SkMel5
# [15] = tested on: UACC257
# [16] = tested on: UACC62
# [17] = tested on: WM115
# [18] = tested on: WM1716
# [19] = tested on: WM1745
# [20] = tested on: WM3526
# 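Also: cells treated in 1,536-well plates, then fixed and DAPI-stained, with nuclei counted from automated high-throughput microscope images.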
SMILES,cell count [1] [%],cell count [2] [%],cell count [3] [%],cell count [4] [%],cell count [5] [%],cell count [6] [%],cell count [7] [%],cell count [8] [%],cell count [9] [%],cell count [10] [%],cell count [11] [%],cell count [12] [%],cell count [13] [%],cell count [14] [%],cell count [15] [%],cell count [16] [%],cell count [17] [%],cell count [18] [%],cell count [19] [%],cell count [20] [%]
"CCc1ccc(CCOc2ccc(CC3SC(=O)NC3=O)cc2)nc1 (stereo not given) [pioglitazone] + c1cc(-c2cnn3cc(-c4ccc(OCCN5CCCCC5)cc4)cnc23)ccn1 [Dorsomorphin] (first compound 10 µM, partner dose 2 µM)",59.1,86,91.9,90.9,92.7,80.1,64.9,62.6,81.7,96.9,71,75.3,83.8,76.6,82,79.1,77.2,85.9,53.1,79.8
"NC(=O)c1ccc(N(C(N)=O)c2c(F)cccc2F)nc1-c1ccc(F)cc1F + CCCCCCCCc1ccc(CCC(N)(CO)CO)cc1 [fingolimod] (first compound 2 µM, partner dose 10 µM)",0.589,19.9,13.7,0.536,12.3,5.55,1.99,18.4,1.06,2.93,1,0.31,8.66,38.2,71.8,26.5,10.1,41.7,11,20.7
"NC(=O)c1ccc(N(C(N)=O)c2c(F)cccc2F)nc1-c1ccc(F)cc1F + COc1ccc(C2=N[C@@H](c3ccc(Cl)cc3)[C@@H](c3ccc(Cl)cc3)N2C(=O)N2CCNC(=O)C2)c(OC(C)C)c1 [Nutlin-3] (first compound 2 µM, partner dose 0.5 µM)",77.8,102,116,68.5,64.9,96.1,102,90.6,86.3,73.3,42,90.3,89.5,76.7,85.8,66.1,85.2,85,88.6,87.6
"CCCCCCCCc1ccc(CCC(N)(CO)CO)cc1 [fingolimod] + Cn1c(Nc2ccc(C(F)(F)F)cc2)nc2cc(Oc3ccnc(-c4ncc(C(F)(F)F)[nH]4)c3)ccc21 [CHIR265] (first compound 10 µM, partner dose 0.4 µM)",1.17,29.1,8.06,0.211,11,6.24,1.33,45.3,3.01,5.84,8.65,0.0928,11.7,29.8,83.9,8.76,12,39.8,4.34,36.1
"CC(C)(C)c1cnc(CSc2cnc(NC(=O)C3CCNCC3)s2)o1 + Cc1cc(N2CCOCC2)cc2[nH]c(-c3c(NC[C@@H](O)c4cccc(Cl)c4)cc[nH]c3=O)nc12 [BMS536924] (first compound 0.05 µM, partner dose 1 µM)",90.6,118,81.3,72.3,55.1,84.1,92.2,73.1,43.9,97.9,55.6,61.8,83.8,53.4,95.9,67.3,92.8,97.3,48.9,77.1
"CC(C)(C)c1cnc(CSc2cnc(NC(=O)C3CCNCC3)s2)o1 + O=C(Nc1ccccc1)c1cc([N+](=O)[O-])ccc1Cl [GW9662] (first compound 0.05 µM, partner dose 10 µM)",86.7,116,101,65.5,65.2,101,60,68.3,41.2,70.2,51.4,74.6,65.9,53.9,76.8,65.4,64.9,56.7,93.2,87.6
"CN(NC(=O)CC(=O)NN(C)C(=S)c1ccccc1)C(=S)c1ccccc1 + COc1ccc(COc2ccc(Cc3cnc(N)nc3N)cc2OC)cc1 [GW2580] (first compound 0.03 µM, partner dose 5 µM)",42.4,77.8,24.7,73.7,77.9,93.6,98.7,28.4,83.4,64.1,30.5,97,101,40.1,89.5,27.9,30.6,76.4,39.3,95.8
"CCc1ccc(CCOc2ccc(CC3SC(=O)NC3=O)cc2)nc1 (stereo not given) [pioglitazone] + O=c1cc(-c2cccc3c2Sc2ccccc2S3)oc(N2CCOCC2)c1 [KU55933] (first compound 10 µM, partner dose 5 µM)",77.7,96.5,109,111,96.5,84.3,104,92.4,74.3,93.3,69.2,79.9,94.9,80.2,86.3,94,93.5,87.4,89,76.9
"Cc1ccc(NC(=O)c2cccc(N(C)C)c2)cc1NC(=O)c1ccc(O)cc1 + O=S(=O)(c1ccccc1)N(CC(F)(F)F)c1ccc(C(O)(C(F)(F)F)C(F)(F)F)cc1 [T0901317] (first compound 10 µM, partner dose 7 µM)",67.2,68.9,86.4,105,171,76.9,88,89.7,72.3,91.6,72.4,84.9,90.8,59.6,80,80.9,94.3,113,64.7,78.3
